Where “and” joins values, the source holds several entries; their conditions need not be identical. Equal entries are not always repeated. Screen size: about 300,000 compounds; about 22,000 (7.3%) were called active. The shares of active, inactive and inconclusive entries below differ from those in the screen. No stated cut-off is given here; in the data, active means activity score below about -60%; inconclusive means mostly about -28% to -61%; inactive means positive scores.
Assay: Activators via SNCA 5'UTR binding, MLPCN (AID 1814)
Settings: alpha-synuclein 5'UTR reporter, activators screen; active compounds read low; tested at 7.5 µM

Activity score, inactive:
O=C(c1ccc(Cl)cc1)N1N=C(c2ccccn2)CC1(O)C(F)(F)F (stereo not drawn) 68.6%
Cc1cccc2sc(NNC(=O)c3ccc(S(=O)(=O)N4CCc5ccccc5C4)cc3)nc12 66.9%
O=C(CCl)NC(Cc1ccccc1)c1ccccc1 (stereo not drawn) 59.5%
COc1cc(/C=N/NS(=O)(=O)c2ccc(C)cc2)ccc1OCc1ccc(C(=O)O)cc1 84.2%
N/C(=N\OC(=O)c1ccc(Cl)cc1)c1ccccn1 62.5%
CC(C)C(=O)NC(c1cccc([N+](=O)[O-])c1)c1ccc2cccnc2c1O (stereo not drawn) 90.7%
OC(CNCCc1ccccc1)COc1ccc(OCC(O)CNCCc2ccccc2)cc1 (stereo not drawn) 107%
CCCCCCCCCCCCCCCCn1cc[n+](C)c1 97.3% and 141%
CC[n+]1c(/C=C/N(C)c2ccccc2)n(-c2ccccc2)c2ccc(-c3nc4ccccc4s3)cc21 120%
Cc1c(CCC(=O)N2CCC(C(=O)O)(c3ccccc3)CC2)c(=O)oc2cc3oc4c(c3cc12)CCCC4 67.5%
Cc1ccc(-n2nc3c(=O)n(CCCC(=O)NCc4ccc(Cl)cc4)nc(C)c3c2C)cc1 62.2%
CCCCCCc1cc2cc(C(=O)Nc3cccc(OC)c3)c(=O)oc2cc1O 62.8%
C=CCn1c(O)c(N=NC(=S)Nc2ccc(OC)cc2)c2ccccc21 84.5%
COC(=O)Cc1csc(/N=C/c2c(O)n(-c3cccc(C(F)(F)F)c3)c(=O)c3ccccc23)n1 81.8%
COc1cc(N=Cc2c(O)[nH]c3ccccc23)cc(OC)c1OC 81%
O=C(N/N=C/c1cc(Br)cc(Cl)c1O)c1ccc2c(c1)OCO2 50%
Cc1ccc(NC2=C(Cl)C(=O)OC2OC(C)C)c(C)c1 (stereo not drawn) 69.2%
COc1cc(OC)cc(C(=O)NC(=S)NNC(=O)c2cnccn2)c1 73.2%
COCCn1c(C)cc(C(=O)COC(=O)c2ccccc2Br)c1C 54.7%
Cc1cc(NC(=O)c2ccccc2)c(Cl)cc1N 64%
CCC(C)Nc1nc(N)c([N+](=O)[O-])c(Nc2cc(OC)ccc2OC)n1 (stereo not drawn) 97.1%
Cc1ccc(NC2=C/C(=N\S(=O)(=O)c3cccs3)c3ccccc3C2=O)c(C)c1 118%
CC(C)c1ccc(/C=C2\SC(=S)N(CCC(=O)NCCCn3ccnc3)C2=O)cc1 98.4%
CC(C)c1ccc2[nH]c(O)c(N=NC(=O)c3cccc(S(=O)(=O)Nc4ccc(Cl)cc4)c3)c2c1 79.4%

Activity score, inconclusive:
COc1ccc(-c2cc(C(=O)c3c(N)n(C)c(=O)n(C)c3=O)c3ccccc3n2)cc1 -57.1%
O=C(NCCCCc1ccccc1)C1CCCC1 -58.9%
CSc1nnc2c(n1)OC(C)=Nc1ccccc1-2 -53.6%
O=C1/C(=C/c2ccc([N+](=O)[O-])cc2)CCC1C1CCCC1 (stereo not drawn) -51.4%
COc1ccccc1C(=O)N/N=C(\C)CC(=O)Nc1ccc(Cl)cn1 -59.8%
O=C(Nc1cccc2nsnc12)c1cccnc1 -57.2%
O=C(Nc1ccc2[nH]ncc2c1)c1cccc(F)c1 -50.6%
COc1cccc2sc(NN)nc12 -46.1%
Cn1c(SCC(=O)c2ccc(F)cc2)nnc1-c1ccccn1 -50.1%
CCCCn1c(SCc2nc3ccccc3s2)nc2cc(S(N)(=O)=O)ccc21 -60.1%
CCCCC(=O)Nc1ccc(NC(=O)C(C)C)cn1 -56.2%
COc1ccc(C2CC(c3ccc4ccccc4c3)=NN2C(=O)CSc2ncccn2)cc1 (stereo not drawn) -60.8%
CCCCNC(=S)Nc1ccc(C(F)(F)F)cc1 -57.8%
CC(=O)Nc1ccc(NC(=O)/C=C/c2ccccc2)cc1 -39.1%
Cc1ccc(-n2ncc(C(=O)N3CCc4ccccc4C3)c2NC(=O)c2ccco2)cc1C -46.6%
COc1ccc2cc3cc(C(=O)Nc4ccc5c(c4)OCCO5)oc3nc2c1 -55.6%
Cc1nnc(NC(=O)Cc2cccs2)s1 -32.6%
CN(C)c1cccc(C(=O)Nc2cccc(S(=O)(=O)NC3=NCCC3)c2)c1 -51.2%
CCOC(=O)Cn1nc(-c2ccc(C)cc2)ccc1=O -55.1%
COc1ccccc1C(=O)N/C(=C\c1cn(S(=O)(=O)N(C)C)c2ccccc12)C(=O)N1CCCC1 -47.3%
CCOC(=O)c1cc2ccc(OC)cc2oc1=O -55.3%
Cc1c(C(=O)N/N=C/c2ccccc2)[nH]c2ccc(Cl)cc12 -60.7%
COC(=O)Cn1ncc2c3ccccc3n(C)c2c1=O -59.8%
COCCNC(=S)N1CCN(c2nc3ccccc3s2)CC1 -40.2%
COc1cc(CNCc2cccs2)ccc1OCc1ccccc1 -49.6%
Cc1ccc2cc3c(NC(=O)c4ccco4)nn(C)c3nc2c1 -53.4%
COCCN(CCOC)S(=O)(=O)c1ccc(C(=O)Nc2nc(C)c(C(C)=O)s2)cc1 -38.6%
Cc1ccc2nc(SCc3cn4cccnc4n3)[nH]c2c1 -44.8%
CCCCNC(=O)CSc1nc2ccc(NC(=O)CSc3nnc(N)s3)cc2s1 -36%
Cn1ccc(C(=O)N/N=C/c2ccccc2[N+](=O)[O-])n1 -51.8%
CCCCOC(=O)N1CCOCCOCCOCC1 -43.6%
CS(=O)(=O)c1ccc2c(c1)sc1nc(=O)c(/C=C3/C=CC(=O)C(O)=C3)c(N)n12 -59%
N#Cc1ccc(-n2c(-c3ccccc3)nnc2-c2ccccc2)cc1C#N -43.1%
COc1ccc(-c2nnn(-c3cc(Cl)cc(Cl)c3)c2N)cc1 -57%
COc1ccc(-c2cc(C(=O)Nc3cc(S(=O)(=O)N4CCOCC4)ccc3N3CCOCC3)c3ccccc3n2)cc1 -42.7%
COc1cc(CO)ccc1Oc1nnnn1-c1ccc(C(N)=O)cc1 -59.1%
O=c1[nH]nc(SCCS(=O)(=O)c2ccc(F)cc2)n1-c1ccccc1C(F)(F)F -39.6%
Cc1ccc(/C(N)=N/OC(=O)c2ccc3c(c2)OCO3)cc1 -56.4%
CC(=O)NC(Cc1ccccc1)c1ccc2c(c1)OCCCO2 (stereo not drawn) -53.4%
Cc1csc(NC(=O)Cc2ccc(Br)cc2)n1 -52.1%
Cn1ncc2c1ncn1nc(CCc3ccccc3)nc21 -50.2%
O=S(=O)(/N=C(/Nc1cc(N2CCOCC2)ncn1)c1ccc(F)cc1)c1ccccc1 -40.5%
O=C(Nc1nnc(-c2ccncc2)o1)c1ccccc1 -54.9%
CCN(CC)c1ccc2cc(C(=O)Nc3ccccn3)c(=O)oc2c1 -59.9%
O=[N+]([O-])c1cccc(-c2cc3ccccc3[nH]2)c1 -59.9%
CC1(C2(O)CC(c3ccccc3)ON2)CCCCC1 (stereo not drawn) -47.4%
NC(=O)c1ccccc1N/C=C/C(=O)c1ccc(Cl)cc1 -54.4%
C/C(=N\Nc1ccc([N+](=O)[O-])cc1)c1ccc(-n2nncc2C(C)(C)C)cc1 -56.7%
Cc1ccc(OCC(=O)c2ccc(Cl)s2)c([N+](=O)[O-])n1 -37.3%

Activity score, active:
Clc1cccc(Cl)c1/C=C/c1nc2ccccc2[nH]1 -149%
CC1CCCCN1C(=O)CSc1nnc(-c2ccc(Cl)s2)o1 (stereo not drawn) -69.4%
Cc1ccc(S(=O)(=O)CCC(=O)N(CCN2CCOCC2)c2nc3ccccc3s2)cc1 -75.3%
O=C(O)c1ccc(-c2noc(-c3cccc(C(F)(F)F)c3)n2)cc1 -82.6%
O=C(c1ccc2c(c1)OCO2)N1CCc2ccccc2C1 -113%
CCc1nnc(NC(=O)c2cccc(NC(=O)C(C)C)c2)s1 -81.3%
COc1ccc(/C=C/C(=O)Nc2ccccc2C(F)(F)F)cc1 -141%
Cc1ccc(C(=O)C(C)OC(=O)c2ccccc2[N+](=O)[O-])cc1 (stereo not drawn) -158%
O=C(Nc1ccc(NC(=O)c2ccco2)cc1)c1cnccn1 -67%
CCN1CCN(C(=O)c2cc3ccc(OC)cc3[nH]2)CC1 -135%
Nc1c(Cl)ncnc1N/N=C/c1ccnc2ccccc12 -68%
O=C1CCC(=O)N1c1ccc(-c2nc3ccccc3s2)cc1 -120%
COc1cccc2sc(/N=C/N(C)C)nc12 -81.4%
O=C(CCNc1cc(Cl)cc(Cl)c1)c1cccs1 -93.5%
Cc1csc(NC(=O)Nc2ccc(Cl)cc2)n1 -115%
CC1CCc2c(C(=O)Nc3ccccn3)csc2C1 (stereo not drawn) -116%
O=C(N/N=C/c1cccc(Cl)c1)c1c(O)c2c([nH]c1=O)CCCC2 -99.9%
O=C(NCCc1ccc(Cl)cc1)c1ccc(Br)s1 -180%
Cc1cc(N2CCN(C)CC2)nc2ccc(NC(=S)NCc3cccs3)cc12 -77.9%
O=[N+]([O-])c1ccc(NCCOc2ccccc2Cl)nc1 -74.1%
